Results taken from the supplement of paper PMC9151546.
Repeats are few or missing, and single values can be far off.

What was measured:
CHO-K1 [1] = assay: micronucleus frequency (% of nucleated events); higher = more micronuclei (genotoxic)
CHO-K1 [2] = assay: relative survival (nuclei to bead ratio vs DMSO control) (% of vehicle control); higher = more surviving cells
Procedure: (§1)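 Flow-cytometric in vitro micronucleus assay (Litron MicroFlow) in CHO-K1 cells in 96-well plates, 19 concentrations (4.5-200 µM, n=1 per concentration). Without S9, cells were exposed for 24 h and sampled at 48 h. With Aroclor 1254-induced rat liver S9, cells were exposed for 3-4 h and sampled at 27-28 h. Read-outs are %MN and %hypodiploid nuclei relative to nucleated events, and relative survival as the nuclei-to-bead ratio versus the 1% DMSO vehicle control (x100).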

CHO-K1 [3] = assay: hypodiploid nuclei frequency (% of nucleated events); higher = more hypodiploid events (aneugenic)
Procedure: as §1
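Wherever hypodiploid nuclei frequency (% of nucleated events) is given: hypodiploid nuclei gated on a flow cytometer with 488 nm excitation after SYTOX Green staining, cultures at 37 °C, positive controls vinblastine without S9 and cyclophosphamide with S9.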
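Wherever micronucleus frequency (% of nucleated events) is given: cells lysed with nuclei stained by SYTOX Green, then micronucleus-gated events counted against nucleated events by flow cytometry with 488 nm excitation.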
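Wherever relative survival (nuclei to bead ratio vs DMSO control) is given: Lysed-cell nuclei stained with SYTOX Green and counted against counting beads by flow cytometry at 488 nm excitation, with vinblastine (no S9) and cyclophosphamide (plus S9) as positive controls.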

COc1cc(C=O)ccc1O [4-Hydroxy-3-methoxybenzaldehyde]
Conditions	hypodiploid nuclei frequency, CHO-K1 [3] [%]	micronucleus frequency, CHO-K1 [1] [%]	relative survival, CHO-K1 [2]
concentration: 4.5 (µM), S9 metabolic activation: with S9, exposure time: 3-4 hours	0.26	1.12	78.8
concentration: 4.5 (µM), S9 metabolic activation: without S9, exposure time: 24 hours	0.32	1.34	80.8
concentration: 5.63 (µM), S9 metabolic activation: with S9, exposure time: 3-4 hours	0.24	1.2	85.8
concentration: 5.63 (µM), S9 metabolic activation: without S9, exposure time: 24 hours	0.52	2.44	89.9
concentration: 7.04 (µM), S9 metabolic activation: with S9, exposure time: 3-4 hours	0.2	0.64	70.3
concentration: 7.04 (µM), S9 metabolic activation: without S9, exposure time: 24 hours	0.66	0.88	66.1
concentration: 8.8 (µM), S9 metabolic activation: with S9, exposure time: 3-4 hours	0.24	1.3	82.3
concentration: 8.8 (µM), S9 metabolic activation: without S9, exposure time: 24 hours	0.7	1.6	50.7
concentration: 11 (µM), S9 metabolic activation: with S9, exposure time: 3-4 hours	0.3	1.22	93.2
concentration: 11 (µM), S9 metabolic activation: without S9, exposure time: 24 hours	0.74	1.58	45
concentration: 13.7 (µM), S9 metabolic activation: with S9, exposure time: 3-4 hours	0.34	1.04	93
concentration: 13.7 (µM), S9 metabolic activation: without S9, exposure time: 24 hours	0.64	1.46	75.7
concentration: 17.2 (µM), S9 metabolic activation: with S9, exposure time: 3-4 hours	0.24	1.04	116
concentration: 17.2 (µM), S9 metabolic activation: without S9, exposure time: 24 hours	0.48	1.08	53.4
concentration: 21.5 (µM), S9 metabolic activation: with S9, exposure time: 3-4 hours	0.42	1	112
concentration: 21.5 (µM), S9 metabolic activation: without S9, exposure time: 24 hours	0.72	1.1	62.4
concentration: 26.8 (µM), S9 metabolic activation: with S9, exposure time: 3-4 hours	0.2	1.28	71.6
concentration: 26.8 (µM), S9 metabolic activation: without S9, exposure time: 24 hours	0.66	1.42	76
concentration: 33.6 (µM), S9 metabolic activation: with S9, exposure time: 3-4 hours	0.34	1.4	87.5
concentration: 33.6 (µM), S9 metabolic activation: without S9, exposure time: 24 hours	0.42	1.62	82.8
concentration: 41.9 (µM), S9 metabolic activation: with S9, exposure time: 3-4 hours	0.22	1.84	107
concentration: 41.9 (µM), S9 metabolic activation: without S9, exposure time: 24 hours	0.72	1.48	71.7
concentration: 52.4 (µM), S9 metabolic activation: with S9, exposure time: 3-4 hours	0.14	0.94	85.1
concentration: 52.4 (µM), S9 metabolic activation: without S9, exposure time: 24 hours	1.14	2.04	76.7
concentration: 65.5 (µM), S9 metabolic activation: with S9, exposure time: 3-4 hours	0.32	1.12	115
concentration: 65.5 (µM), S9 metabolic activation: without S9, exposure time: 24 hours	0.82	1.18	73.8
concentration: 81.9 (µM), S9 metabolic activation: with S9, exposure time: 3-4 hours	0.14	0.98	105
concentration: 81.9 (µM), S9 metabolic activation: without S9, exposure time: 24 hours	0.82	1.36	70.6
concentration: 102 (µM), S9 metabolic activation: with S9, exposure time: 3-4 hours	0.22	1.36	91.3
concentration: 102 (µM), S9 metabolic activation: without S9, exposure time: 24 hours	1.2	1.78	57.2
concentration: 128 (µM), S9 metabolic activation: with S9, exposure time: 3-4 hours	0.22	1.26	96.6
concentration: 128 (µM), S9 metabolic activation: without S9, exposure time: 24 hours	1.12	1.7	62.4
concentration: 160 (µM), S9 metabolic activation: with S9, exposure time: 3-4 hours	0.12	1.02	104
concentration: 160 (µM), S9 metabolic activation: without S9, exposure time: 24 hours	1.18	1.44	73.8
concentration: 200 (µM), S9 metabolic activation: with S9, exposure time: 3-4 hours	0.12	1.04	96.1
concentration: 200 (µM), S9 metabolic activation: without S9, exposure time: 24 hours	1.54	2.4	50.1

Nc1ccc([N+](=O)[O-])cc1 [4-Nitroaniline]
Conditions	hypodiploid nuclei frequency, CHO-K1 [3] [%]	micronucleus frequency, CHO-K1 [1] [%]	relative survival, CHO-K1 [2]
concentration: 4.5 (µM), S9 metabolic activation: with S9, exposure time: 3-4 hours	0.34	1.56	85.9
concentration: 4.5 (µM), S9 metabolic activation: without S9, exposure time: 24 hours	0.66	1.72	87.8
concentration: 5.63 (µM), S9 metabolic activation: with S9, exposure time: 3-4 hours	0.2	1.88	90.6
concentration: 5.63 (µM), S9 metabolic activation: without S9, exposure time: 24 hours	0.54	1.46	78.4
concentration: 7.04 (µM), S9 metabolic activation: with S9, exposure time: 3-4 hours	0.24	1.62	84.9
concentration: 7.04 (µM), S9 metabolic activation: without S9, exposure time: 24 hours	0.82	1.48	87.4
concentration: 8.8 (µM), S9 metabolic activation: with S9, exposure time: 3-4 hours	0.14	0.92	98.5
concentration: 8.8 (µM), S9 metabolic activation: without S9, exposure time: 24 hours	0.56	1.76	103
concentration: 11 (µM), S9 metabolic activation: with S9, exposure time: 3-4 hours	0.22	1.4	91.5
concentration: 11 (µM), S9 metabolic activation: without S9, exposure time: 24 hours	0.46	1.88	86
concentration: 13.7 (µM), S9 metabolic activation: with S9, exposure time: 3-4 hours	0.18	1.54	73.6
concentration: 13.7 (µM), S9 metabolic activation: without S9, exposure time: 24 hours	0.68	1.5	73.6
concentration: 17.2 (µM), S9 metabolic activation: with S9, exposure time: 3-4 hours	0.24	1.62	85.2
concentration: 17.2 (µM), S9 metabolic activation: without S9, exposure time: 24 hours	0.54	1.52	69.9
concentration: 21.5 (µM), S9 metabolic activation: with S9, exposure time: 3-4 hours	0.28	1.26	73.2
concentration: 21.5 (µM), S9 metabolic activation: without S9, exposure time: 24 hours	0.62	1.42	88.5
concentration: 26.8 (µM), S9 metabolic activation: with S9, exposure time: 3-4 hours	0.3	1.38	108
concentration: 26.8 (µM), S9 metabolic activation: without S9, exposure time: 24 hours	0.66	2.36	89.7
concentration: 33.6 (µM), S9 metabolic activation: with S9, exposure time: 3-4 hours	0.18	1.12	106
concentration: 33.6 (µM), S9 metabolic activation: without S9, exposure time: 24 hours	0.86	1.66	99.2
concentration: 41.9 (µM), S9 metabolic activation: with S9, exposure time: 3-4 hours	0.28	1.64	113
concentration: 41.9 (µM), S9 metabolic activation: without S9, exposure time: 24 hours	0.82	2.18	97.8
concentration: 52.4 (µM), S9 metabolic activation: with S9, exposure time: 3-4 hours	0.18	1.44	96.9
concentration: 52.4 (µM), S9 metabolic activation: without S9, exposure time: 24 hours	0.7	2.2	90.5
concentration: 65.5 (µM), S9 metabolic activation: with S9, exposure time: 3-4 hours	0.26	1.82	102
concentration: 65.5 (µM), S9 metabolic activation: without S9, exposure time: 24 hours	0.78	2.48	106
concentration: 81.9 (µM), S9 metabolic activation: with S9, exposure time: 3-4 hours	0.32	1.42	89.8
concentration: 81.9 (µM), S9 metabolic activation: without S9, exposure time: 24 hours	0.84	1.96	89.3
concentration: 102 (µM), S9 metabolic activation: with S9, exposure time: 3-4 hours	0.16	1.84	93
concentration: 102 (µM), S9 metabolic activation: without S9, exposure time: 24 hours	0.72	1.92	93.4
concentration: 128 (µM), S9 metabolic activation: with S9, exposure time: 3-4 hours	0.12	1.14	97.5
concentration: 128 (µM), S9 metabolic activation: without S9, exposure time: 24 hours	1.24	4.18	85.6
concentration: 160 (µM), S9 metabolic activation: with S9, exposure time: 3-4 hours	0.22	1.36	104
concentration: 160 (µM), S9 metabolic activation: without S9, exposure time: 24 hours	1.4	2.64	74.7
concentration: 200 (µM), S9 metabolic activation: with S9, exposure time: 3-4 hours	0.14	1.18	92.7
concentration: 200 (µM), S9 metabolic activation: without S9, exposure time: 24 hours	1.68	2.76	81.8

C1CC2OC2CC1C1CO1 (centres undefined) [4-Vinyl-1-cyclohexene dioxide]
Conditions	hypodiploid nuclei frequency, CHO-K1 [3] [%]	micronucleus frequency, CHO-K1 [1] [%]	relative survival, CHO-K1 [2]
concentration: 4.5 (µM), S9 metabolic activation: with S9, exposure time: 3-4 hours	0.38	1.7	107
concentration: 4.5 (µM), S9 metabolic activation: without S9, exposure time: 24 hours	1.26	2.18	111
concentration: 5.63 (µM), S9 metabolic activation: with S9, exposure time: 3-4 hours	0.32	1.76	104
concentration: 5.63 (µM), S9 metabolic activation: without S9, exposure time: 24 hours	1.36	2.56	115
concentration: 7.04 (µM), S9 metabolic activation: with S9, exposure time: 3-4 hours	0.32	1.66	101
concentration: 7.04 (µM), S9 metabolic activation: without S9, exposure time: 24 hours	1.1	2.5	108
concentration: 8.8 (µM), S9 metabolic activation: with S9, exposure time: 3-4 hours	0.42	1.46	108
concentration: 8.8 (µM), S9 metabolic activation: without S9, exposure time: 24 hours	1.14	2.4	108
concentration: 11 (µM), S9 metabolic activation: with S9, exposure time: 3-4 hours	0.28	1.34	111
concentration: 11 (µM), S9 metabolic activation: without S9, exposure time: 24 hours	1.32	2.74	113
concentration: 13.7 (µM), S9 metabolic activation: with S9, exposure time: 3-4 hours	0.26	1.3	125
concentration: 13.7 (µM), S9 metabolic activation: without S9, exposure time: 24 hours	1.16	2.42	115
concentration: 17.2 (µM), S9 metabolic activation: with S9, exposure time: 3-4 hours	0.56	2.12	89.9
concentration: 17.2 (µM), S9 metabolic activation: without S9, exposure time: 24 hours	1.38	2.7	132
concentration: 21.5 (µM), S9 metabolic activation: with S9, exposure time: 3-4 hours	0.32	1.92	112
concentration: 21.5 (µM), S9 metabolic activation: without S9, exposure time: 24 hours	0.84	2.44	107
concentration: 26.8 (µM), S9 metabolic activation: with S9, exposure time: 3-4 hours	0.34	1.74	104
concentration: 26.8 (µM), S9 metabolic activation: without S9, exposure time: 24 hours	1.32	2.16	114
concentration: 33.6 (µM), S9 metabolic activation: with S9, exposure time: 3-4 hours	0.3	1.5	94
concentration: 33.6 (µM), S9 metabolic activation: without S9, exposure time: 24 hours	1.36	1.92	108
concentration: 41.9 (µM), S9 metabolic activation: with S9, exposure time: 3-4 hours	0.3	1.38	107
concentration: 41.9 (µM), S9 metabolic activation: without S9, exposure time: 24 hours	1.62	2.88	108
concentration: 52.4 (µM), S9 metabolic activation: with S9, exposure time: 3-4 hours	0.26	1.36	100
concentration: 52.4 (µM), S9 metabolic activation: without S9, exposure time: 24 hours	1.62	2.16	101
concentration: 65.5 (µM), S9 metabolic activation: with S9, exposure time: 3-4 hours	0.24	1.32	98.3
concentration: 65.5 (µM), S9 metabolic activation: without S9, exposure time: 24 hours	1.52	2.38	109
concentration: 81.9 (µM), S9 metabolic activation: with S9, exposure time: 3-4 hours	0.2	1.84	108
concentration: 81.9 (µM), S9 metabolic activation: without S9, exposure time: 24 hours	1.58	2.74	113
concentration: 102 (µM), S9 metabolic activation: with S9, exposure time: 3-4 hours	0.2	1.66	110
concentration: 102 (µM), S9 metabolic activation: without S9, exposure time: 24 hours	2	2.72	100
concentration: 128 (µM), S9 metabolic activation: with S9, exposure time: 3-4 hours	0.32	1.86	90.4
concentration: 128 (µM), S9 metabolic activation: without S9, exposure time: 24 hours	1.86	3.7	98.3
concentration: 160 (µM), S9 metabolic activation: with S9, exposure time: 3-4 hours	0.28	1.6	95.9
concentration: 160 (µM), S9 metabolic activation: without S9, exposure time: 24 hours	2.2	3.46	101
concentration: 200 (µM), S9 metabolic activation: with S9, exposure time: 3-4 hours	0.3	1.9	70.4
concentration: 200 (µM), S9 metabolic activation: without S9, exposure time: 24 hours	2.3	5.16	78.6
